# Measurements: publication PMC10726135
# This is one part of the list. At the low end of the ranking the order means little. The protein was read in a cell extract, so binding may be indirect.
# Biological target: T1, HNF4alpha2 (COS-7 nuclear extract) (UniProt P41235)
# T1 sequence: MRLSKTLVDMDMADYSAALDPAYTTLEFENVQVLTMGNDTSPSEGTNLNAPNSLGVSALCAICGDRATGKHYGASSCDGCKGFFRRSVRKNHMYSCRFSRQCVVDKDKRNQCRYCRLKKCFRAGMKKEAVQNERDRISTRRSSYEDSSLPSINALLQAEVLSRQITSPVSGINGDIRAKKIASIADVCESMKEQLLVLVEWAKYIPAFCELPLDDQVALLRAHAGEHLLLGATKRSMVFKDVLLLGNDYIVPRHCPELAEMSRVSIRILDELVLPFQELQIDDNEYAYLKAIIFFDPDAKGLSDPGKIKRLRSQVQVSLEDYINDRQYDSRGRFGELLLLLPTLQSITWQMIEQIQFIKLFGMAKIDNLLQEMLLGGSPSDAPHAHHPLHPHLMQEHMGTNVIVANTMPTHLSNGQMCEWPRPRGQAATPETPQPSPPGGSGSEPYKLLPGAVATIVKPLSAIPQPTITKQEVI
# Test: protein-binding microarray
# Conditions: COS-7 nuclear extract on double-stranded Agilent 4x180k PBM; binding buffer, salt, pH and temperature not given; high values mean tight binding; double strand, one strand shown; sequences stand for … in …GCCTAGGGAGATTAGAGTATCGGTCGA
row,Sequence,binding signal (log2 normalized intensity)
1,CTCTTCCCAACTTGGCCTCAATGTTTACAC,0.993
2,TATCTGACTGATGCTAAAGTCTACATTCTA,0.711
3,TTGACCCCTTGGCCCCGCTGTCCTGATCCC,4.2
4,CTCTGCACACACAGACATAAACACAGACAC,-1.14
5,TTGTAGCCTCATTTCACCTTTGGTCTTTGG,4.78
6,TTCTGATAAGAGCATTTTTGTATGCATAAG,1.05
7,GATTAATTACCCACAGGTGTGTTGACTCAA,0.897
8,GTTCTATGGGATGACCTTTGAGCAATAGGA,5.15
9,AGAACACGGAGTCCTTCTGGGGCTAGGTTT,-1.09
10,TCCAGATTAGAGCACAATGTGGGGAGCACA,0.53
11,TGCTGACTTTCTGTGTCTTGGCAGTGATCA,2.17
12,TCACGAAAGGCAACATCTTGAGCCAGGAAT,-1.1
13,ACGGAGAATGTAGACCTTTACCACCCTCAC,1.27
14,AAAATGAAAGCAAGGGCCAGATCAAAGGCT,-1.31
15,AGTGCAAGGGAGAAATTGCGCTAACCAGAT,-1.16
16,ATTTCTCAGGAAGTGCTTGTTCCCTCCATC,0.335
17,ACATCTCTCTCTGCAGCTGAGTAGAGGAAA,-0.811
18,ACAAACCAGCTTTGAGATGATAAAAATTTG,-1.09
19,CTGAAATAGGTAAGCTGGCCCGGGAAGAAG,-0.97
20,ATGATACGCCGGCCAATCCGGCTGGCAGCC,-1.28
21,GTAAACCCCAATCAGGTTTCTCAAGTGATC,1.7
22,GAATTCAAAGGTGCAAAGGTTAAAATGCCC,4.55
23,GCAGAGGCTGGAGCAGGCCATGTGCAGAGG,-1.08
24,AGGAGGAGAAGGGTGGGAATTGGGATAGCA,-1.13
25,AAGGTATGGAGCTAAACAATTAAAGAACTC,-1.13

row,Sequence,binding signal (log2 normalized intensity)
1,ACCTGTGTGTGTAGGCATAGGAGAAACACA,0.788
2,AATGCGCCTGAACTGACTGCATTCCCTTTC,-1.2
3,TTCTTTTCCCAAACCACGTTTCTGTGGTCA,1.58
4,GGTCACTCTTGCTATGCCTTAGCAAACAGA,-1.22
5,GGTGCCAGAATTGCTGCTCCCCCTCCCAAA,4.9
6,ACCAGGCCGGGTCACGTGGGTCCAGGGTCA,2.83
7,CAGTATAGTTAGGGCCTTGCAGGGGGCCTC,-1.06
8,TACCCCCATACTTTATTTAGCTTTAGTTCA,1.64
9,AATGGAAGGCAGTGTTCCAAAGTGTAAAAG,0.989
10,CAAACAACAGGCATCAACTCTATCATACTC,-0.883
11,ACATTGTGTATGGACTGTAATACACAAGCA,-0.479
12,ACGGGCCTGAAAACTGGAGGCCGCGACAAG,-1.12
13,CTCAAAGTGCTTTTCAATCTTATTTTTACT,-1.17
14,GGTGTCCAGATTCCAGCCTCCTGCTCTGGG,-1.12
15,ACATGAGCCTCTTTATCTCTCTCTCTTTCT,0.898
16,AGTGACCCTGTCTCTCAGTCTCTGTGGGAG,1.25
17,AACAAGGATAGCGTCATCAGTCCAGGAGGG,-1.06
18,TGGTCCTGGAACTCAAAGGTCAAATGACAG,3.85
19,AAACCAACCCTGCCAAAGGTTAAAATTCCC,0.747
20,GCATATGAGTAATGTGAAGACTTCGCTGGA,-1.03
21,GGAACACAATAGGAATTCAACCAATGTGGA,-0.925
22,ACCAGCAATTTTCAGGGTTAAAAGTTCTGC,0.779
23,GACTCATCTCCAAACGAGACTTTGGACTTT,8.97
24,CCGCAGCGCTGGTGGCTGCAAGGTTTGTGT,1.39
25,TCCCTGCAGTCAGGACTCTGGGACCGCAGG,-1.09

row,Sequence,binding signal (log2 normalized intensity)
1,AAGGTCACCCGTATTCCTTAGCTTATCGTC,-0.0407
2,GGGCTGGGTAAAATGAGAATGAGACCTGCT,-1.03
3,TCCGTAACCTCACAGAAATCCAAAGGTCAA,4.75
4,TAATCTTCACTTGCCACATTTATTGTGAGA,1.52
5,GTCCAGGCCATGCAACAGCCTCCTCACTAG,-1.04
6,ATTTACATCAAACACTCACTGGGAGAGAAA,0.168
7,ATGCAGTGGGTCAGTCTGAGATAGTCATTC,0.63
8,CCCTTCCCCGCTCTCCCCGCCCCCTCTCCG,5.79
9,CTCATCCATGAATCCTGTGGTAGCCACTCT,-0.42
10,ACTTTGGCTACTCAGTTTTTTGGCCGTCTT,1.62
11,TGATAAAACAAATCTACAAATGTTTCAACA,-1.07
12,CCAAGGAGACACCCCTGCAGAAGCGGGAGA,-1.14
13,GAAGCGCACTAAGCCGAACGCTGGGGCAAA,-1.12
14,GAGACCCATTTTGGACTTTGACCTCCAAAA,10.7
15,TTCTCTCCCCCAACCCCACCTTCATTCTTC,4.27
16,TTCTCAAGGACCTAGAGCTATTCCTTTGAA,-1.18
17,ATGTCATGACCTTCATCAATCAGCCTGATA,-1.1
18,TATCTGTTTATTTTGCAATTAACAAAGAGA,0.905
19,CACTGAGATAAAAATGGCCAAAGGTTGCCA,2.09
20,GAATTTCAGAAGCAGGTCAATAGGGCAGGG,2.1
21,GCAAACTATGTGAGGAATCTAAGATAAGCA,-0.971
22,CAGGCTGTTTTCCTATAGATTTGTTAAATC,1.13
23,ATCCAGAGGTCACCCAGAGCGTCCCACCTG,-1.12
24,GGAAGGGAGAGATAAGAAAAACTGAGCTTT,-1.17
25,TTGCAGAAGGCAGCCAAACAGAGGCTGAAA,-1.12

row,Sequence,binding signal (log2 normalized intensity)
1,GTTCGATAAAAAACAATTTACAACCTGCTC,-1.19
2,AAGGTATCCTCCTAGAGTCCAAGGTATAAA,1.79
3,TTTCAACCCTGTGATGACCCCATACTTCAG,3.69
4,CTGTTGAACATTAACTCTCTGTGAGTGTGT,1.85
5,TAACAAACATTACTAACTGGACTTTATCTA,2.61
6,TGGAGGAGCTGAACTGTAACCTCAAAGGAG,-1.13
7,TTTGCCTGAACTTTAAACTGGTGTGTCTTG,2.67
8,GAAAGGGGCCTCAGAGAAAGCCTGTTTGCT,-1.22
9,TGAGGCCCCAGTGTCAATTCTCATTCATCC,-0.225
10,GTGGCTAGAACCCAGGCACAGGTCCTACTC,-1.22
11,TCGGCTTCATTAGCAAATAACAAAGGGCAC,3
12,AAAATAGCCAAAATAAAGCAGCAAACCAGA,-1.22
13,GGGAGATCTTCAGTAAGAGGATTTCTTCGC,-0.771
14,ATCAGCGTTGAGCCTTTTGTCCCAAGGAGA,1.05
15,AAAAGTCTCAGGGGCCTTGCAATGAGGCGA,-0.924
16,GTGACTACCTGGTTAAAAGGACAACCTTCG,0.583
17,TCTTGACATCTCTCTCTGCAGCTGAGTAGA,-0.28
18,CAGAGCTGTCGTCCCAGGGCAAAGGTCACC,7.59
19,TCAGTTCCTATTTCAACATCCTCTCAGGTC,2.06
20,ACAGGAAAAAAAAAAATTACTGACCCTTGC,2.51
21,CTTTAAACTGGTGTGTCTTGCCTTTCCACC,0.291
22,CAGTGGCTGAGACAATGAGTGCTTCAGTCC,-0.213
23,CCAGATTCTCTCACTGCTCTGGCCACTCCC,-1.07
24,CTAGGCTCCAGGGCACTGCCCTTTGGAACC,6.71
25,CACACACCTGTGCAAACATTGGTTGCAAAA,-1.01

row,Sequence,binding signal (log2 normalized intensity)
1,CCTGCAAGGATTGATCAGCACATGAAGGTC,1.23
2,CCTGCACCTGAACTTTGCTCTGTGACACAA,4.04
3,GAAGGCAGCCAAACAGAGGCTGAAATGGTT,-1.13
4,TCCCTCCGTGGGGCTCCTTTGATCTCCGTG,0.843
5,GGTATGTTTGTGATATTGTGAAATATATAT,2.03
6,TCTCTTTTAGGCTGTCAGCCACCAAAGCAG,-1.22
7,AACATTTTTGCAACATGAGGAGCCAAGTTT,0.767
8,GAGCATCCAGATAAAGCTGAAGAAAGCAGG,-1.17
9,CCAATGGCTAAGGTCACCATGACCATAAAC,-1.12
10,TCTGCAGACATGGACTCTGGGATCTCAGGG,1.24
11,CTGTGCCATGCTTTTCAGTGCAAGGGACCT,0.993
12,CAGTTTGACCTTTGCATTCTTACCCAAGCC,4.4
13,CAGTGGACTTTGTCCTTCATCTATCTCCTT,5.04
14,AGGCTGGGGCCCCATCGACCTTTGCTCCCG,9.6
15,AGGCCATAGGGAAAGATAAAAAAGTTCCAG,-1.16
16,GCTAATGAGCACATTCTTCAATATCAGTGG,0.487
17,CACTGGAGGTTGAATTCCAAAGGTTATTTT,3.4
18,ATAGATAAGCACACTAAGGCTAAAGATTAC,-1.13
19,CCCACCTCCGGCCGGGAAGATGCCAGCCCC,2.12
20,TCAGCGGCCCTGTGCTGCCCCCGATAGCAC,4.28
21,TTTATTCAGGTGGCCACTGGCCCAGCGGAT,0.261
22,AAACATTAGCCAGGATCAGATTTGATAGCT,-1.14
23,TCACATACCAGTAAAAACAACTGCCACTTA,-1.13
24,TGAAGTCATATTGAACTCACTGACTTCCAT,1.12
25,AAGACTCAGTCGGCTGTCAAATCACTGAAG,-0.94

row,Sequence,binding signal (log2 normalized intensity)
1,AAGAAGAGCCCAGACAAGCATTCTGCTGAA,-0.94
2,GGGGGTGAGTCAGTCCCCAGCAATTGGGAA,-0.702
3,AATGGACAACGGAAAGACAGAGGTGAGGCT,-1.13
4,GTGCAGTGATCAATCAGCAGCAAAGTCCTG,-1.08
5,CCTAAGGCCTCCAGAAGGAATGCAGCCCTG,-1.18
6,CCAAAATGTGTTAGGCAAGCAAACTGCAAA,-1.08
7,ATATTTGCCAAGTGATAAGGAACCTAGGAA,-1.09
8,CCCTTCCTCGGTGGAGTTGACACAGACCTG,0.569
9,TGCAGTATGCCCCCCCACCCCACACACACA,6.7
10,GTATGTGAATGCCTGGGCATGGCTGTGTTC,1.05
11,CGGAGCGCGCGGGAGGAGGAGACAAAGGCC,2.27
12,GGGGGGTGGGGTGGAAGCTATGCCTGAGGC,-1.11
13,GAACCAAGAGAGCCATTGGTGTAACTCTGG,-0.929
14,AAGGCCAAGCCAGTTTCCAGGGAGGAGAGA,-1.11
15,CTTAAATTGTGCTGTGTCAGAGTTGTCCTG,1.9
16,GAATGGAGACACACCTGCGGTGACTGGAAG,-1.21
17,CTAAACCAGGATCCAGTCCTCACCCAGAAC,0.786
18,TGGCAATGGCTGCAGCTCTTCCACGTGAGA,-1.11
19,AACAAAAACCAAATCACAATTTTCAAGAAC,-1.14
20,TCTGGCTTCTCGTGAGTATTTTTTCAACAT,0.665
